These are yes or no findings as the source states them, for the method shown. Some entries that bind do so weakly or less than the wild type.
What was measured:
[1] = target: T1, APETALA3 (AP3) (Arabidopsis thaliana) (UniProt P35632); test: two-hybrid; pairs of pDEST-AD and pDEST-DB vectors co-transformed into yeast strain AH109; growth on lower stringency plates, -HWL with 20 mM 3AT, after 6 days (Figure 6A; for AP1, mAP1 and FUL the text cites Figure 6 as a whole)
T1 sequence: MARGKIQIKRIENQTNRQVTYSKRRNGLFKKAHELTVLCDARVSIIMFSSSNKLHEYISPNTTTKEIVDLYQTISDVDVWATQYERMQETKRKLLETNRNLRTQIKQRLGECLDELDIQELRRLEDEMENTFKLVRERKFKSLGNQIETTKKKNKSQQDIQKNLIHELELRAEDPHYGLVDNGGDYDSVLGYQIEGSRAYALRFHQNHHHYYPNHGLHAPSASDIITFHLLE

Sequences of proteins named here, by UniProt entry; tags and fusion partners are left off.
UniProt P29382: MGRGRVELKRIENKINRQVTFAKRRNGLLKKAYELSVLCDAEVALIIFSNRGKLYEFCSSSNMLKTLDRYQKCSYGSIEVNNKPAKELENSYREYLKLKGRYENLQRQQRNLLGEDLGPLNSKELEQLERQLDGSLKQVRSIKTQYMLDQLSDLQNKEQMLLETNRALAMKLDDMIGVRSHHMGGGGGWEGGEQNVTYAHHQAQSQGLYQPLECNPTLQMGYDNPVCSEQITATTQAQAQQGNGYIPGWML
UniProt P29386: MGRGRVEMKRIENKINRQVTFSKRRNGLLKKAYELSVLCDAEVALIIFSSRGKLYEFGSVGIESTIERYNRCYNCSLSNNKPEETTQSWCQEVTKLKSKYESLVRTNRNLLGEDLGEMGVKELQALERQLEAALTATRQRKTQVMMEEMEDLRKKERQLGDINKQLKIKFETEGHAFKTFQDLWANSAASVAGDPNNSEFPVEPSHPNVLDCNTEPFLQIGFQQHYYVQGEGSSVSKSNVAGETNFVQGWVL
UniProt O22456: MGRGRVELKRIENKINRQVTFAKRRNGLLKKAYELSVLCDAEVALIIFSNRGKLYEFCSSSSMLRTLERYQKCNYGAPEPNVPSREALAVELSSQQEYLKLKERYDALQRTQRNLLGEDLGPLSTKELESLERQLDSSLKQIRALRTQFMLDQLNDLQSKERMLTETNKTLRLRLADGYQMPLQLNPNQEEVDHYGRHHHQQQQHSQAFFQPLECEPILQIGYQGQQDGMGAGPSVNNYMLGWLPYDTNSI
UniProt Q38876: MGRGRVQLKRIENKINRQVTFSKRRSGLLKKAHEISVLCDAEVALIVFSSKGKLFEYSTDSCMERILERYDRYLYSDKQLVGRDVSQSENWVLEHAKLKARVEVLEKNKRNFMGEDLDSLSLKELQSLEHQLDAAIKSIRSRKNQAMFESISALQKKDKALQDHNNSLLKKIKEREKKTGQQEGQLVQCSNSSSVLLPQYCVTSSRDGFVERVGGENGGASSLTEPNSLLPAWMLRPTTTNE

[2] = target: …1 (SEP1) (Arabidopsis thaliana) (UniProt P29382); test: as above
[3] = target: T2, … (PI) (Arabidopsis thaliana) (UniProt P48007); test: as above
T2 sequence: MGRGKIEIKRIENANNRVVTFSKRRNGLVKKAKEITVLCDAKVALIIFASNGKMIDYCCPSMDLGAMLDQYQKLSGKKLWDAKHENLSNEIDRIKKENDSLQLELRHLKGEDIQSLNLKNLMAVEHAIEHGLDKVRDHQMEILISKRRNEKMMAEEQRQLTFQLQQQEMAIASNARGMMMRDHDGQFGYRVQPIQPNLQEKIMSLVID

[4] = target: AGAMOUS-LIKE 6 (AGL6) (Arabidopsis thaliana) (UniProt P29386); test: as above
[5] = target: …3 (SEP3) (Arabidopsis thaliana) (UniProt O22456); test: as above
[6] = target: T3, AGAMOUS-LIKE 24 (AGL24) (Arabidopsis thaliana) (UniProt O82794); test: as above
T3 sequence: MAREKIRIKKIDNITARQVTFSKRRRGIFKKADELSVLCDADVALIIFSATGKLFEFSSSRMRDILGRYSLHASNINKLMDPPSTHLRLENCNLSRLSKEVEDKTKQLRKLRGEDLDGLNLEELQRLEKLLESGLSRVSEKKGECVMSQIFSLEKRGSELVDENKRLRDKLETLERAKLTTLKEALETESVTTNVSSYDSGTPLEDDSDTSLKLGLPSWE

[7] = target: AGAMOUS-LIKE 6 (AGL6) (Arabidopsis thaliana) (UniProt P29386); test: two-hybrid; pairs of pDEST-AD and pDEST-DB vectors co-transformed into yeast strain AH109; growth on higher stringency plates, -HWL with 30 mM 3AT, after 6 days (Figure 6B)

FRUITFULL (FUL) (from UniProt Q38876 1-242)
binding [1]: no binding
binding [2]: binds
binding [3]: no binding
binding [4]: binds
binding [5]: binds
binding [6]: binds
binding [7]: binds

— article PMC4667048
